# From PubChem BioAssay AID488969 (Vanderbilt High Throughput Screening Facility, 2010)
# Over roughly 110,000 compounds, “z-score” has its median near -0.1; the highest 2% begin near 2. The list shows a part of the results. The source made the active and inactive calls.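 Rule for the calls: active = z-score in the third read window above 3 or below -3; inactive = the rest.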
# Target: Metabotropic glutamate receptor 8 (Rattus norvegicus) (UniProt P70579)
# Assay: rat mGluR8 modulators via GIRK flux, primary screen, cell-based, thallium flux, HTS (AID 488969)
# Conditions: HEK293 rat mGluR8, GIRK (G protein-gated inwardly rectifying potassium channel) thallium flux, FluoZin2; at 10 µM; stronger effect = higher value; submaximal glutamate (EC20) added with thallium
# UniProt P70579, sequence (P70579 whole entry, looked up): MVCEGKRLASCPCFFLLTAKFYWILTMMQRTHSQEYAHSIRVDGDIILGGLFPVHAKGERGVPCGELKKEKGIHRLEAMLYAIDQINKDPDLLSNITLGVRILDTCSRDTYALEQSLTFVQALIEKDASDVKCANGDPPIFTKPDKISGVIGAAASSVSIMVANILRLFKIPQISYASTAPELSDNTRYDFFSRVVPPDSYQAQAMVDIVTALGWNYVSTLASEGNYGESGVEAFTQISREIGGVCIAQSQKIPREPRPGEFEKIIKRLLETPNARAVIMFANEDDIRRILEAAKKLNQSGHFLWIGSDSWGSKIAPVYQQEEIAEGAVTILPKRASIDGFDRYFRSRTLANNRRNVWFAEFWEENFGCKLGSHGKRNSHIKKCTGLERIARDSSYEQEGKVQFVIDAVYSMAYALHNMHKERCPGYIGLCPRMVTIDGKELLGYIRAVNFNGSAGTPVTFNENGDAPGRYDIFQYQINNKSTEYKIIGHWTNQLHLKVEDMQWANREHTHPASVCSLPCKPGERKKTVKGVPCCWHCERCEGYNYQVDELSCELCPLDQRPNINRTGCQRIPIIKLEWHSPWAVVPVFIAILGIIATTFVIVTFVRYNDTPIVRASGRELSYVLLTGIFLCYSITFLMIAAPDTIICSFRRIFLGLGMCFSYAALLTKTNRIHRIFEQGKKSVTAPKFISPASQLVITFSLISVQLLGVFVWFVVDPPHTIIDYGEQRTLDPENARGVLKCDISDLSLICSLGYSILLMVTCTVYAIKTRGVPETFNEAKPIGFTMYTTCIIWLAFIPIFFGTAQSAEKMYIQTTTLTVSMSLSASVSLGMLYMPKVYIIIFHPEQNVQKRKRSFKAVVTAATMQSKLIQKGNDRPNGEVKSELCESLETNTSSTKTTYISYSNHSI
row,SMILES,z-score
1,O=C(CSc1nc2ccccc2s1)c1cc2ccccc2o1,-0.2
2,CCC1(c2ccccc2)NC(=S)N(c2cccc(C)c2C)N1 (configuration not stated),1.26
3,CCOC(=O)c1c(/N=C/N(C)C)sc(/C=N/Nc2ccccc2)c1-c1ccc(Cl)cc1,0.0481
4,N#Cc1ccsc1NC(=O)COC(=O)c1cc2ccccc2cc1O,-0.0194
5,O=C(COC(=O)c1ccc(=O)n(Cc2ccccc2)n1)Nc1ccc2c(c1)OCCO2,-1.32
6,Cc1nc(N)nc(OCC(F)(F)C(F)F)c1Br,-0.145
7,Nc1c(C(=O)c2cccs2)oc2ccccc12,-0.109
8,CN(C)/C=C(\C#N)C(=O)c1cccnc1Oc1ccc(F)cc1F,0.0242
9,CCc1c(C(=O)Nc2ccc(OC)c(Cl)c2)[nH]c(C)c1C(C)=O,-0.335
10,O=C(Nc1ccc(Cl)cn1)c1cc(S(=O)(=O)N2CCCCC2)ccc1Cl,0.807
11,CCc1nc(NC(C)C)c2oc3ccccc3c2n1,-0.284
12,Cc1cccc(NC(=O)/C(=C\c2cccs2)NC(=O)c2ccccc2)c1,-0.272
13,CCOC(=O)c1ccc(N2Cc3ccccc3C2)cc1O,-0.0165
14,O=C(Nc1ccc(Cc2ccncc2)cc1)C1CCC(N2C(=O)C3C4C=CC(C4)C3C2=O)CC1 (configuration not stated),-0.379
15,Nc1c(S(=O)(=O)c2cccs2)c2nc3ccccc3nc2n1Cc1cccs1,-1.05
16,Cc1cc(NC(=O)CSc2nc(C(C)C)nc3sc4c(c23)CCCC4)no1,-0.493
17,Cc1cccc(OCC(=O)Nc2ccc3c4c(cccc24)CC3)c1C,-0.0548
18,Cc1ccnc(NS(=O)(=O)c2ccc(NC(=O)c3ccc(N4C(=O)CCC4=O)cc3)cc2)n1,-0.246
19,O=C(CCS(=O)(=O)c1cccc2nonc12)Nc1cccc2c1CCCC2,-0.699
20,Fc1ccc(NC(=S)N/N=C/c2ccc(F)c(F)c2)c(F)c1,active: 13
21,CC(C)c1ccc(C(=O)N(c2ccccn2)C(C)c2ccco2)cc1 (configuration not stated),-0.451
22,Cn1c(=O)[nH]c(=O)c2c1nc(N1CCCCCC1)n2Cc1cccc2ccccc12,-1.43
23,COc1ccc(/C=C/C(=O)OCC(=O)NCc2ccco2)cc1OC,-0.183

row,SMILES,z-score
1,COCCNc1ncnc2c1cnn2-c1ccc(Cl)cc1,0.0016
2,CCOC(=O)c1sc(NC(=O)c2ccc(C)o2)nc1C,-0.0466
3,CCCC(=O)NC(Nc1ccccc1OC)C(Cl)(Cl)Cl (configuration not stated),-0.206
4,COc1ccc(OC(=O)c2cccnc2)cc1,-0.0966
5,O=C(Nc1cccc2ccccc12)N1CC=CCC1,-0.000291
6,CCN(C(=O)CSc1ncn[nH]1)C1CCCCC1,-0.31
7,CC(C)CC(NC(=O)c1cccs1)c1nnc(SCc2ccc(Cl)c(Cl)c2)n1C (configuration not stated),-0.451
8,COc1ccc(C(=O)N[C@H](C(=O)Nc2nc3c(s2)CCCC3)C(C)C)cc1,-0.401
9,C=CCNC(=O)c1onc(CSc2ccc(F)cc2)c1C(=O)NCCOC,-0.188
10,COC(=O)CCC(=O)NNC(=O)c1cccc(Cl)c1,-0.0301
11,Cc1cccc(-n2c(C)cc(C=C3C(=O)c4ccccc4C3=O)c2C)c1,0.264
12,O=C(NCCCNC(=O)NC1CCCCC1)NC1CCCCC1,-0.38
13,COCCOc1cc(Nc2nnc(C(F)(F)F)s2)c(Cl)cc1Cl,-0.218
14,[O-]/C(=C(\C(=S)NCc1ccco1)[n+]1ccccc1)c1ccccc1Br,0.181
15,O=C(Cn1c(=O)[nH]c2ccsc2c1=O)N1CCN(c2ccc(F)cc2)CC1,0.356
16,CC(=O)c1c(C)nc2ccccc2c1N,0.205
17,CCCCNC(=O)CC(NS(=O)(=O)c1ccc(C)cc1)c1ccco1 (configuration not stated),0.225
18,Cc1csc(NC(=O)C2CCN(C(=O)CSc3nnc(C)n3Cc3ccccc3)CC2)n1,0.871
19,C=Cn1c(C(=O)O)cc(CC)c1-c1ccccc1,-0.157
20,Cc1cnc(C(=O)Nc2ccccc2-c2ccc(C)o2)cn1,-0.182
21,O=C(COc1ccc2c(c1)CCC2)N1CCN(c2ccccc2F)CC1,0.363
22,COc1cc(C=O)ccc1OCCSc1ccc(C)cc1,-0.427
23,CCC(Oc1ccc(C)c(C)c1)C(=O)O (configuration not stated),-0.0336

row,SMILES,z-score
1,COc1ccccc1CNC(=O)CCNC(=O)Cn1cnc2ccccc2c1=O,-2.9
2,CCN(CC)C(=O)CSc1ncnc2c1cnn2-c1ccccc1,-0.00204
3,Cc1ncc(N=Nc2ccc(F)cc2)c(-c2ccc(Cl)cc2)n1,-0.28
4,N#C/C(=C\c1ccc(Cl)cc1Cl)c1n[nH]c(Cn2cncn2)n1,-1.59
5,CC(=O)N(Cc1ccccc1)c1ccc(C(=O)O)cc1,-0.0088
6,Cc1cc(C(=O)CSc2nnc(-c3ccc4c(c3)OCO4)o2)c(C)n1-c1ccc(F)cc1,-0.128
7,Cc1nn2c([nH]c(=O)c3ccccc32)c1C=O,0.184
8,O=C(c1ccc(Cl)cc1)c1cnc(-c2ccc(Cl)cc2)s1,-0.111
9,O=c1[nH]nc(Cc2ccc(-c3ccc(Cl)cc3)o2)c2ccccc12,-0.067
10,CCOc1ccc(NC(=O)CN(C)c2ccc(S(=O)(=O)N3CCOCC3)cn2)cc1OCC,-0.527
11,C=CCNC(=O)CN(c1ccc(F)cc1)S(=O)(=O)c1ccc(OC)cc1,0.0947
12,O=C(NC1C(=O)NNC1c1ccccc1)c1ccccc1 (configuration not stated),-0.136
13,Cc1cc(C)c(C#N)c(SCc2ccccc2)n1,-0.758
14,Cc1ccc(NC(=S)NC(NC(=O)c2ccco2)C(Cl)(Cl)Cl)cc1 (configuration not stated),0.98
15,CC1(C)CC(=O)/C(=C\c2cccc([N+](=O)[O-])c2)C(C)(C)N1,-0.221
16,COCc1nc2ccccc2n1CCCOc1ccccc1,-0.414
17,COc1cc(C)c(Cl)c(C)c1S(=O)(=O)NCc1ccc2c(c1)OCO2,0.315
18,CCOc1cc(S(=O)(=O)NCCc2cccc(C)c2)c(OCC)cc1-n1cnnn1,-1.22
19,CC(=O)NC(Cc1c[nH]c2ccccc12)C(=O)NCc1ccc2c(c1)OCO2 (configuration not stated),0.203
20,Cc1cccc(OCC(=O)Nc2cc(C)c(C)cc2O)c1,0.318
21,CCN(CC)C(=O)c1sc(NC(=O)c2ccc(Br)o2)c(C(=O)OC)c1C,-0.165
22,O=C(CCc1ccc(S(=O)(=O)NC2CCCCC2)cc1)NCc1ccccc1,-0.277
23,Cc1cccc(N2CCN(C(=O)C3CCCCC3)CC2)c1C,-0.211

row,SMILES,z-score
1,CCOc1ccc(NC(=O)N(CCC(C)C)C2CCN(C(C)=O)CC2)cc1,-0.426
2,CC(C)Oc1ccc(-c2cc(=O)[nH]c(=O)[nH]2)cc1,-0.397
3,C/C(=N\NC(N)=O)c1ccc(Cl)cc1,-0.78
4,CC(C)c1nc(SCC(=O)Nc2cccc(C(F)(F)F)c2)c2c(=O)n(C)c(=O)n(C)c2n1,-0.509
5,CC(OC(=O)c1cc2c(s1)CCCCC2)C(=O)NC(N)=O (configuration not stated),-0.0656
6,COC(=O)C(NC(=O)COc1ccccc1)(Nc1nc2c(s1)CCCC2)C(F)(F)F (configuration not stated),2.96
7,O=C(Cc1ccccc1)N/N=C/c1ccc(OCC(=O)Nc2ccccc2)cc1,-0.147
8,Cc1csc(SCC(=O)NC(=O)Cc2ccccc2)n1,-0.52
9,COc1ccc(N2CCN(C(=O)C34CCC(C)(C(=O)C3)C4(C)C)CC2)cc1 (configuration not stated),-0.157
10,CCc1nccn1S(=O)(=O)c1cc(Br)ccc1OC,-0.405
11,CCOC(=O)c1sc(NC(C)=O)nc1-c1ccccc1,0.0747
12,CCOc1ccc(N=Nc2c(N)[nH][nH]c2=O)cc1,-0.154
13,Cc1cc(NC(=O)C2C3C(=O)N(Cc4ccc(Cl)cc4)C(C(=O)NCc4ccccc4)C34C=CC2(C)O4)no1 (configuration not stated),0.193
14,Cc1nc(-c2ccc(NC(=O)c3ccccc3Br)cc2)cs1,-0.389
15,CC(C)(C)c1ccc(C(=O)NNC(=O)Cc2cccc3ccccc23)cc1,-0.0076
16,CCC(CC)c1nnc(NC(=O)/C=C/c2ccco2)s1,-0.154
17,O=C(CN(Cc1ccccc1)C1=NCCS1)c1ccccc1,-0.754
18,COc1ccc(S(=O)(=O)N2CCCC(C(=O)O)C2)cc1Cl (configuration not stated),-0.0148
19,CC12CCC(C(=O)N3CCN(C(=O)C45CCC(C)(C(=O)O4)C5(C)C)CC3)(OC1=O)C2(C)C,0.641
20,Cc1ccc2nc(-c3ccc(N4C(=O)CC(N5CCCC(C)C5)C4=O)cc3)sc2c1 (configuration not stated),-0.124
21,COc1cccc(S(=O)(=O)Nc2ccc(C(=O)N3CCN(C(=O)c4ccco4)CC3)cc2)c1,-0.29
22,Cc1cccc(S(=O)(=O)Nc2nc3ccccc3nc2Nc2ccc3c(c2)OCO3)c1,-0.592
23,COc1ccc(C(C)(C)C)cc1NC(=O)c1cc(S(=O)(=O)N(C)C)ccc1N1CCCC1,-0.481

row,SMILES,z-score
1,Cn1cccc1CC(=O)N/N=C/C(Cl)=C/c1ccccc1,0.188
2,CCOC(=O)c1cc2cc(OC)ccc2[nH]1,0.182
3,COc1ccc(NC(=O)c2ccccc2[N+](=O)[O-])cc1OC,-0.438
4,Cc1nnc(SCCn2c(Br)nc3c2c(=O)n(C)c(=O)n3C)s1,0.366
5,Cc1noc(C)c1C(=O)OCC(=O)Nc1cc(Cl)ccc1Oc1ccccc1,0.183
6,Cc1ccc(-c2noc(CSc3nc(N)cc(N)n3)n2)cc1,0.085
7,CC(=O)Nc1nonc1NC(=O)CSc1nc2ccccc2o1,-0.262
8,O=C(NNC(=O)c1ccccc1-n1cccc1)c1ccc(Cl)c(Cl)c1,0.0734
9,C#CCn1cc(/C=N/Nc2nc3ccccc3[nH]2)c2ccccc21,-0.392
10,Cc1cc(-c2ccccc2)nc(N(C)NC(=O)c2ccc(Cl)cc2)c1S(C)(=O)=O,-0.143
11,Cc1ccc(OCC(=O)c2cc(C)n(C3CC3)c2C)c([N+](=O)[O-])n1,-0.0663
12,O=c1cc(-c2ccccc2)nc(SCc2ccc(Cl)cc2)[nH]1,-0.183
13,COC(=O)c1ccc(Cl)c(NC(=O)CN(c2ccccc2)S(=O)(=O)c2ccc(OC)cc2)c1,-0.436
14,NS(=O)(=O)c1ccc(CNC(=O)C2CCCCC2)cc1,0.0132
15,O=C1CC(NNc2nc3ccccc3s2)C(=O)N1c1ccccc1 (configuration not stated),0.181
16,c1ccc(OCCSc2nc3ccccc3o2)cc1,0.228
17,O=C(OCCn1cncn1)c1cc2ccccc2oc1=O,-0.3
18,CCC(=O)c1ccc(OCCSc2ncccn2)cc1,-0.0986
19,O=C(Nc1cc(C(F)(F)F)ccc1N1CCOCC1)c1cn2ccccc2n1,-0.314
20,O=[N+]([O-])c1cc(/C=N/O)ccc1SCc1ccccc1Cl,-0.158
